# According to PMC9911399, “Two distinct binding modes provide the RNA-binding protein RbFox with extraordinary sequence specificity”:
# Positions count from the first letter of the chain named. This is one part of the list.
# T1: RBFOX1 RRM (Homo sapiens, UniProt Q9NWB1 109-208)
# T1 sequence: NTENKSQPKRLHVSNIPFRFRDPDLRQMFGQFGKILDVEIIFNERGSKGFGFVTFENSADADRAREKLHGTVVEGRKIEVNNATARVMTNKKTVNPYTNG
# B1: CUAGAGU (DNA:RNA)
# RNA: GGGAGACCGGAAUUCAGAUUGUCCCUAGAGUUUAAAUCCCGUCGUAGCCACCA
# DNA 1: CAATCTGAATTCCGGTCTCCC
# DNA 2: TGGTGGCTACGACGGGATT
# B2: AACAUUU (DNA:RNA)
# RNA: B1 RNA with C25A, U26A, A27C, G28A, A29U, G30U
# DNA 1: CAATCTGAATTCCGGTCTCCC
# DNA 2: TGGTGGCTACGACGGGATT
# B3: GCAUGAU (DNA:RNA)
# RNA: B1 RNA with C25G, U26C, G28U, A29G, G30A
# DNA 1: CAATCTGAATTCCGGTCTCCC
# DNA 2: TGGTGGCTACGACGGGATT
# B4: GCGAAAA (DNA:RNA)
# RNA: B1 RNA with C25G, U26C, A27G, G28A, G30A, U31A
# DNA 1: CAATCTGAATTCCGGTCTCCC
# DNA 2: TGGTGGCTACGACGGGATT
# B5: GGCGUCA (DNA:RNA)
# RNA: B1 RNA with C25G, U26G, A27C, A29U, G30C, U31A
# DNA 1: CAATCTGAATTCCGGTCTCCC
# DNA 2: TGGTGGCTACGACGGGATT
# B6: GCGUUUA (DNA:RNA)
# RNA: GGGAGACCGGAAUUCAGAUUGUCCGCGUUUAUUAAAUCCCGUCGUAGCCACCA
# DNA 1: CAATCTGAATTCCGGTCTCCC
# DNA 2: TGGTGGCTACGACGGGATT
# B7: GAUGAUC (DNA:RNA)
# RNA: B1 RNA with C25G, U26A, A27U, G30U, U31C
# DNA 1: CAATCTGAATTCCGGTCTCCC
# DNA 2: TGGTGGCTACGACGGGATT
# B8: UGAGGCU (DNA:RNA)
# RNA: B1 RNA with C25U, U26G, A29G, G30C
# DNA 1: CAATCTGAATTCCGGTCTCCC
# DNA 2: TGGTGGCTACGACGGGATT
# B9: CUCGGGU (DNA:RNA)
# RNA: B1 RNA with A27C, A29G
# DNA 1: CAATCTGAATTCCGGTCTCCC
# DNA 2: TGGTGGCTACGACGGGATT
# Molecular target: T1, RBFOX1 RRM
# Test: EMSA; HiTS-Eq, 1 nM pool, 10 min; buffer printed only for the single-RNA assays: 10 mM Tris pH 7.5, 150 mM NaCl, 3.4 mM EDTA, 0.001% NP-40, 30 C
# Details: tags: His6 N-terminal (pET28a); label: 5' 32P
# Outline: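 Purified RbFox RRM (wild type or mutant) was equilibrated for 10 min in 50 µL with 1 nM of a 5′-radiolabelled pool of RNA with 7 randomized nucleotides, its flanks annealed to DNA oligonucleotides, across increasing protein concentrations. Free RNA was separated by 8% native PAGE, excised, reverse-transcribed, PCR-barcoded and sequenced on an Illumina HiSeq 2500. Relative association constants came from read-count changes of each variant against the control reaction, normalised to the cognate motif.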
row,Binder,binding signal
1,B1,0.0088 KA relative to UGCAUGU
2,B2,0.00104 KA relative to UGCAUGU
3,B3,0.626 KA relative to UGCAUGU
4,B4,0.00747 KA relative to UGCAUGU
5,B5,0.0121 KA relative to UGCAUGU
6,B6,0.0076 KA relative to UGCAUGU
7,B7,0.0209 KA relative to UGCAUGU
8,B8,0.0155 KA relative to UGCAUGU
9,B9,0.00166 KA relative to UGCAUGU
